PubChem BioAssay AID1452 (National Center for Advancing Translational Sciences (NCATS), 2008)
The whole screen tested about 150,000 compounds, of which about 190 (0.13%) were called active. The shares of active, inactive and inconclusive entries below differ from those in the screen. Calls come from the whole dose curve; as a rule, active = well fitted inhibition curve with a large enough effect; inconclusive = small, poorly fitted or top-dose-only effect; inactive = flat fitted curve, though single readings scatter. Potencies of inconclusive entries are doubtful fits and often do not repeat.

The compounds below were run against Polyunsaturated fatty acid lipoxygenase ALOX12 (Homo sapiens) (UniProt P18054) (assay: qHTS Assay for Inhibitors of 12-hLO (12-human lipoxygenase)). Conditions: purified 12-hLO, xylenol orange hydroperoxide absorbance; series mostly up to 57.1 µM; activity change, negative = inhibition: at the top concentration.
How it was run: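 Purified human 12hLO (150 nM final) was preincubated with compounds for 15 min at room temperature in 25 mM Hepes pH 7.0, 0.01% Triton X-100, then reacted with 40 uM arachidonic acid for 30 min. Hydroperoxide was detected with ferrous iron/xylenol orange.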
% is set by controls: 0 for no effect and ±100 for the full control effect; potency is the fitted concentration of half-maximal effect; tags give direction and shape of the fitted curve.
Note: nearly all actives have a fitted effect of over 55% in size.

UniProt P18054, sequence (P18054 whole entry, looked up): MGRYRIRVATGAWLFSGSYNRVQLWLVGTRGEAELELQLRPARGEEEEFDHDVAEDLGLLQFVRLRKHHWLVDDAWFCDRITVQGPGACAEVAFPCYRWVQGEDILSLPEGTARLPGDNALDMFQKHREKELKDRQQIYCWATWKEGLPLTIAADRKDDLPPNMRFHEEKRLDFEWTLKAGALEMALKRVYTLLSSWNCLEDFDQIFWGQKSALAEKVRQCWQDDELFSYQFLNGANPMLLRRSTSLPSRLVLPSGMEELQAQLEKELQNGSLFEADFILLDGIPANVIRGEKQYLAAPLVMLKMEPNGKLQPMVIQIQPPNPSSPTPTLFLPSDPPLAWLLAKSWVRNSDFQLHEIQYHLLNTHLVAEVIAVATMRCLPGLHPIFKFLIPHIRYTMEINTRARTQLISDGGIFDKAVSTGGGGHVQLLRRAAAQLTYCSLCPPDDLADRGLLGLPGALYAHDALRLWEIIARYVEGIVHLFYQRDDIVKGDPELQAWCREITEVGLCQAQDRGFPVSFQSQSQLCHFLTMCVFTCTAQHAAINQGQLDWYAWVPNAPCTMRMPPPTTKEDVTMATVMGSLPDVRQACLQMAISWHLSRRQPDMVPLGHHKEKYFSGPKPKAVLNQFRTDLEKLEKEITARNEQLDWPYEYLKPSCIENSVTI

Row | SMILES | Potency | activity change, negative = inhibition
1 | CCN(CC)c1ccc(NC(=O)CN2CCN(c3ccc(F)cc3)CC2)cc1 | inconclusive: 39.8 µM [inhibitor, single point] | 
2 | COc1ccc(N(CC(=O)Nc2ccc(C)c(C)c2)S(=O)(=O)c2c(C)n[nH]c2C)cc1 | inconclusive: 31.6 µM [inhibitor, single point] | 
3 | COc1ccc(-c2[nH]ncc2/C=N\NS(=O)(=O)c2ccc(Cl)cc2)cc1 | inconclusive: 14.1 µM [inhibitor, partial curve] | 
4 | CCn1c2ccccc2c2cc(/C=N/n3cn[nH]c3=S)ccc21 |  | inactive: -6.44%
5 | CC(=O)OC(C)C |  | inactive: 4.62%
6 | C[C@@H](N)C1CCC(C(=O)Nc2ccncc2)CC1 (stereo partly specified) |  | inactive: 3.27%
7 | O=C1C2C3C=CC(C4CC34)C2C(=O)N1Cc1ccco1 (stereo unspecified) |  | inactive: -3.04%
8 | COc1ccccc1N1C(=O)CC(Nc2ccc(N3CCOCC3)cc2)C1=O (stereo unspecified) | inconclusive: 10 µM [inhibitor, partial curve] | 
9 | Cc1[nH]nc(N=CC2=C(O)CC(c3ccco3)CC2=O)c1-c1ccccc1 (stereo unspecified) | inconclusive: 17.8 µM [inhibitor, partial curve] | 
10 | Fc1ccc(Nc2ccnc(Nc3ccc(F)cc3)n2)cc1 | inconclusive: 10 µM [inhibitor, partial curve] | 
11 | CCOc1ccccc1Oc1cn[nH]c1-c1ccc(OC)cc1O | inconclusive: 15.8 µM [inhibitor, partial curve] | 
12 | CCCN1CN(CCc2ccccc2)CNC1=S | inconclusive: 14.1 µM [inhibitor, partial curve] | 
13 | Cc1cnn(-c2cc(Oc3ccccc3)ncn2)c1 |  | inactive: -4.16%
14 | COc1ccc(NC(=S)Nc2ccc(OCc3ccccc3)cc2)c(OC)c1 | inconclusive: 39.8 µM [inhibitor, single point] | 
15 | COc1ccc(O)c(C(=O)CC(=O)c2ccccc2)c1 | inconclusive: 2.24 µM [inhibitor, full curve] | 
16 | CC1(C)CC(=O)C2=C(C1)OC1=C(C(=O)CC(C)(C)C1)C2c1ccc(O)cc1O | inconclusive: 12.6 µM [inhibitor, partial curve] | 
17 | Cc1oc2cc(O)cc(O)c2c(=O)c1-c1ccc2c(c1)OCCCO2 | inconclusive: 3.98 µM [inhibitor, full curve, poor fit] | 
18 | COc1ccccc1NC(=S)NCCc1ccc(Cl)cc1 | active: 14.1 µM | 
19 | CN(C)c1oc(-c2ccccc2Cl)nc1C#N |  | inactive: -4.95%
20 | Clc1ccc(-c2nc3nc4ccccc4nc3n2Cc2ccco2)cc1 | inconclusive: 4.47 µM [inhibitor, partial curve] | 
21 | Cc1ccc(Cn2c(C)nc3c(c2=O)c2nc4ccccc4nc2n3Cc2ccco2)cc1 | inconclusive: 4.47 µM [inhibitor, partial curve] | 
22 | COc1ccc(/C=C2\CN(Cc3ccccc3)C/C(=C\c3ccc(OC)cc3)C2=O)cc1 |  | inactive: -22%
23 | CCOC(=O)Cn1nnc(-c2cccc(OC)c2)n1 |  | inactive: 2.29%

Row | SMILES | Potency | activity change, negative = inhibition
24 | NCC1O[C@@H](O[C@H]2C(O)C(O[C@@H]3C(O[C@H]4OC(CO)C(O)C(O)C4N)C(N)CC(N)[C@H]3O)O[C@@H]2CO)C(N)C(O)C1O (stereo partly specified) |  | inactive: 1.24%
25 | CC(C)c1cc(Nc2cccc(O)c2)cc(C(C)C)c1O | inconclusive: 25.1 µM [inhibitor, single point] | 
26 | Cc1ccccc1NC(=O)CSCC(=O)Nc1ccccc1C | inconclusive: 3.98 µM [inhibitor, single point] | 
27 | COc1ccc(N=Cc2sc(O)c3ccccc23)cc1 | inconclusive: 14.1 µM [inhibitor, partial curve] | 
28 | O=C(N/N=C/c1ccc([N+](=O)[O-])s1)C(O)c1ccccc1 (stereo unspecified) | inconclusive: 12.6 µM [inhibitor, partial curve] | 
29 | S=C(NCCC(c1ccccc1)c1ccccc1)Nc1ccccc1Cl | inconclusive: 28.2 µM [inhibitor, single point] | 
30 | COc1ccc(N(CC(=O)NCC2CCCO2)S(=O)(=O)c2ccc(C)cc2)cc1OC (stereo unspecified) |  | inactive: -4.9%
31 | CCOc1ccc(Cc2nnc(N)s2)cc1OCC |  | inactive: 0.721%
32 | COc1cc(C(Nc2ccccn2)c2ccc3ccc(C)nc3c2O)cc(OC)c1O (stereo unspecified) | inconclusive: 28.2 µM [inhibitor, partial curve] | 
33 | CCOc1ccc(C(=O)OCC(=O)NCc2ccco2)cc1OCC |  | inactive: -0.7%
34 | Cc1ccc(-n2nc(C)c3c2OC(N)=C(C#N)C3c2ccoc2)cc1 (stereo unspecified) | inconclusive: 25.1 µM [inhibitor, single point] | 
35 | COC(=O)c1ccccc1NC(=S)NC(=O)c1ccc(C)cc1 | inconclusive: 25.1 µM [inhibitor, single point] | 
36 | CC(=O)n1nc(-c2ccco2)nc1SCc1ccccc1 |  | inactive: -1.1%
37 | COc1cc(NC(=O)CN(c2ccc(C)cc2)S(=O)(=O)c2c(C)nn(C)c2C)cc(OC)c1 | inconclusive: 14.1 µM [inhibitor, partial curve] | 
38 | O=C(Nc1nc2ccc(Cl)cc2s1)[C@@H]1CCCN1C(=O)c1cccs1 | inconclusive: 22.4 µM [inhibitor, single point] | 
39 | S=C(NCCc1ccccc1)N/N=C/c1c(Cl)cccc1Cl |  | inactive: -21.3%
40 | O=c1cc(CO)oc(C(Nc2ccccn2)c2ccc(C(F)(F)F)cc2)c1O (stereo unspecified) | inconclusive: 0.891 µM [inhibitor, full curve, poor fit] | 
41 | CNc1oc(-c2ccc(C)cc2)nc1P(=O)(c1ccccc1)c1ccccc1 |  | inactive: -9.46%
42 | Cn1cccc1CC(=O)N/N=C\c1c2ccccc2cc2ccccc12 | inconclusive: 15.8 µM [inhibitor, partial curve] | 
43 | COc1cc(CNn2c(C)n[nH]c2=S)cc(Cl)c1OCc1ccccc1 | inconclusive: 17.8 µM [inhibitor, partial curve] | 
44 | CC12CC3(C)CC(C)(C1)CC(C(=O)NC(=S)N1CCOCC1)(C2)C3 | inconclusive: 35.5 µM [inhibitor, single point] | 
45 | Cc1ccc(C)c(C(=O)COc2ccc(C)nc2[N+](=O)[O-])c1 | inconclusive: 6.31 µM [inhibitor, full curve, poor fit] | 
46 | Fc1ccc(/C=C2\CCCC3=C2NC(=S)NC3c2ccc(F)cc2)cc1 (stereo unspecified) | inconclusive: 25.1 µM [inhibitor, partial curve] | 
